Results published in PubChem BioAssay AID1345083 (National Center for Advancing Translational Sciences (NCATS), 2018).
The campaign covered roughly 94,000 compounds. About 6,200 (6.6%) were called active. Inconclusive results, whose numbers are uncertain, are shown with a selection of clear calls. Calls follow the shape of the dose curve; as a rule, active = well fitted inhibition curve with a large enough effect; inconclusive = small, poorly fitted or top-dose-only effect; inactive = flat fitted curve, though single readings scatter. Potencies of inconclusive entries are doubtful fits and often do not repeat.
% is scaled to controls: 0 for no effect and ±100 for the full control effect; potency is read from the fitted curve at half-maximal effect; tags tell the direction and shape of the fitted curve.

Assay: Cytotoxic Profiling in HEK 293 Cell Line of Diverse Libraries Using Quantitative High-Throughput Screening; also: nearly all actives have a fitted effect of over 60% in size
Conditions: HEK 293 viability, ATP luminescence (CellTiter-Glo), 48-72 h; activity change, negative = cytotoxicity: at 115 µM (top of the series) unless noted; series mostly up to 115 µM
How it was run: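 HEK 293 cells at 250 cells/well were exposed to compounds by pintool transfer for 48 or 72 hr at 37 degree Celsius, 5% CO2. Viability was read as ATP-coupled luminescence with CellTiter-Glo after 10 min at room temperature.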
In the case of COc1ccccc1Cn1c(=O)c(C(=O)NCc2ccccc2)nc2cccnc21, the Potency was inconclusive: 100 µM [inhibitor, single point].
For CC(C)c1ccc(C(=O)N2CCC(n3c(=O)[nH]c4ccccc43)CC2)cc1, the Potency was inconclusive: 50.1 µM [inhibitor, partial curve].
With O=C(CC1CCN(C(=O)CCC2CCCCC2)C1)NCc1ccccc1 (configuration not stated) the Potency was inconclusive: 89.1 µM [inhibitor, single point].
In the case of Cc1ccc(C)c(NC(=O)C2CCN(c3cc(C(F)(F)F)ncn3)CC2)c1, the Potency was inconclusive: 50.1 µM [inhibitor, partial curve, poor fit].
For OCCOc1ccccc1CN1CCCC(N2CCN(c3ccccc3)CC2)C1 (configuration not stated), the “activity change, negative = cytotoxicity” value was inactive: -5.09%.
In the case of C[C@@H](NC(=O)c1cccnc1)c1c(-c2ccc(F)cc2)noc1C(=O)O, the “activity change, negative = cytotoxicity” value was inactive: 4.65% [at 172 µM].
With COc1cccc(-c2cc3c(=O)n(CCNC(=O)Cc4ccsc4)ccn3n2)c1 the Potency was inconclusive: 89.1 µM [inhibitor, single point].
With CC(C)C[C@@H]1N[C@H](C(=O)NCC2CC2)Cc2cn(Cc3nccn3C)c3cccc1c23 the Potency was active: 35.5 µM.
With CCn1ccnc1CN1CCN(C2CCCCC2)C(CCO)C1 (configuration not stated) the “activity change, negative = cytotoxicity” value was inactive: -10.1%.
With O=C(COc1ccccc1)N1CC(c2noc(COc3ccccc3)n2)C1 the Potency was inconclusive: 56.2 µM [inhibitor, partial curve, poor fit].
With CCOC(=O)C1(Cc2ccc(OC)cc2)CCN(C(=O)c2cccc(Cl)c2)CC1 the Potency was inconclusive: 50.1 µM [inhibitor, partial curve, poor fit].
In the case of O=C1NCCCCCCN(C(=O)CC2CCCCC2)[C@H]2C[C@H](c3nc(-c4cccnc4)no3)C[C@@H]12, the Potency was inconclusive: 89.1 µM [inhibitor, single point].
For COc1ccc2[nH]c(CNc3cc(C4CC(N)C4)nc(C)n3)cc2c1 (configuration not stated), the Potency was inconclusive: 50.1 µM [inhibitor, partial curve, poor fit].
In the case of Cc1ccc(C(=O)NC2CCCN(Cc3cccc(-c4ccc(C)c(Cl)c4)c3)C2)cc1 (configuration not stated), the “outcome” value was “inactive”.
In the case of COc1ccccc1-c1ccc(C(=O)O)cc1, the “activity change, negative = cytotoxicity” value was inactive: -1.49% [at 172 µM].
In the case of CN1CCN(C)c2cc(-c3ccc(N4CCOCC4)cc3)ncc2C1, the Potency was inconclusive: 112 µM [inhibitor, partial curve, poor fit].
In the case of O=C(c1ccccc1F)N1CCCn2cc(-c3ccccc3F)nc21, the Potency was inconclusive: 89.1 µM [inhibitor, single point].
With COc1ccc(C2Cn3nnc(C(=O)N4CCN(C(=O)c5cccc(C)c5)CC4)c3CO2)cc1 (configuration not stated) the Potency was active: 8.91 µM.
In the case of Fc1ccccc1CN1CCCN(Cc2cn(-c3ccccc3)nn2)CC1, the “activity change, negative = cytotoxicity” value was inactive: -21.2%.
In the case of O=C(c1ccccc1)N1CCC2(CC(c3cccc(C(F)(F)F)c3)=NO2)C1 (configuration not stated), the Potency was inconclusive: 56.2 µM [inhibitor, partial curve, poor fit].
In the case of O=C(NCc1ccccc1F)c1ccc2oc(-c3cccnc3)nc2c1, the Potency was inconclusive: 89.1 µM [inhibitor, single point].
With CN1[C@@H](CCC(=O)N2CCc3ccccc32)CNC(=O)[C@@H]2[C@H]1CCN2Cc1ccccc1 the Potency was inconclusive: 100 µM [inhibitor, partial curve, poor fit].
With O=C(C1CCOCC1)N1CCc2c(n(Cc3ccccc3)n(-c3ccccc3)c2=O)C1 the “activity change, negative = cytotoxicity” value was inactive: 3.52% [at 172 µM].
In the case of CC(C)Cc1cc(CC2(NCc3ccccc3O)COC2)no1, the Potency was inconclusive: 100 µM [inhibitor, partial curve, poor fit].
For CNC(=O)c1cc2cc(-c3c(C)noc3C)nc(-c3cccc(CO)c3)c2o1, the Potency was inconclusive: 39.8 µM [inhibitor, partial curve, poor fit].
With O=C(c1cccc(Cl)c1)N1CCN(c2nccc(Nc3ccccc3F)n2)CC1 the Potency was inconclusive: 35.5 µM [inhibitor, partial curve, poor fit].
For O=c1c2c(n(Cc3cccnc3)n1CCc1ccccc1)CN(CC1CCOC1)CC2 (configuration not stated), the “activity change, negative = cytotoxicity” value was inactive: -13.6% [at 172 µM].
With O=C(c1ccc(F)c(F)c1)N1CCC2(CC1)N=C(c1cccc(Br)c1)NO2 the Potency was inconclusive: 70.8 µM [inhibitor, partial curve, poor fit].
With CCN1c2cc(C(=O)Nc3cccc(C(C)C)c3)ccc2C(=O)N2CCCCCC21 (configuration not stated) the Potency was active: 28.2 µM.
For CC(C)(C)C1CCC2(CC1)NC(=O)N(CC(=O)Nc1ccccc1)C2=O (configuration not stated), the Potency was inconclusive: 44.7 µM [inhibitor, partial curve, poor fit].
In the case of CC1(C)[C@H](Cc2cc(COc3ccccc3)on2)C[C@@H]1NC1CCC1, the Potency was active: 35.5 µM.
With O=C(c1cccc([N+](=O)[O-])c1)N1CCc2c(c3ccccc3n2CC2CC2)C1 the Potency was inconclusive: 89.1 µM [inhibitor, partial curve, poor fit].
For O=C(Nc1cnc(-c2ccccc2)nc1)c1ccco1, the “activity change, negative = cytotoxicity” value was inactive: -4.82%.
In the case of c1ccc(CN2CCC(Oc3nccnc3N3CCc4ccccc43)C2)nc1 (configuration not stated), the Potency was active: 39.8 µM.
For Cc1ccsc1C(=O)N1CCc2onc(-c3ccc(F)c(F)c3)c2C1, the Potency was inconclusive: 44.7 µM [inhibitor, partial curve, poor fit].
In the case of CN(Cc1ccccc1)C(=O)C1CCCN(c2cnn(Cc3ccccc3)c(=O)c2)C1 (configuration not stated), the Potency was inconclusive: 89.1 µM [inhibitor, partial curve, poor fit].
For Cc1cnc(CCNC(=O)Nc2ccc3c(c2)OCCO3)n1C1CC1, the “activity change, negative = cytotoxicity” value was inactive: -25.1%.
In the case of c1ccc(-c2cc(CC3(NCc4cnc5ccccc5c4)COC3)no2)nc1, the “activity change, negative = cytotoxicity” value was inactive: -10.8% [at 172 µM].
In the case of COc1ccc(Cl)cc1S(=O)(=O)N1CCCC(Cn2c(C)nc3cccnc32)C1 (configuration not stated), the Potency was inconclusive: 39.8 µM [inhibitor, partial curve].
In the case of Cn1ncc2c(C(=O)N3CCC(C#N)CC3)cc(-c3ccc(C(F)(F)F)cc3)nc21, the Potency was inconclusive: 79.4 µM [inhibitor, partial curve, poor fit].
In the case of COCCN1CCNc2nc(COc3ccccc3OC(F)(F)F)n(Cc3ccccc3)c2C1=O, the Potency was inconclusive: 50.1 µM [inhibitor, partial curve, poor fit].
With O=C(Nc1ccc(F)c(F)c1)c1ccc(Cn2ccn3nc4c(c3c2=O)CCCC4)cc1 the Potency was inconclusive: 44.7 µM [inhibitor, partial curve, poor fit].
